Reference: publication PMC4336329 (PLoS ONE, 2015)
The whole screen tested about 310,000 compounds, of which about 2,200 (0.71%) showed an effect of 50% or more. Effects have a minus sign here. This is one part of the list.

target: human ether-à-go-go-related gene (hERG) potassium channel (human, UniProt Q12809); test: primary screen, population patch clamp on CHO cells stably expressing hERG
Sequence (Q12809 whole entry, looked up): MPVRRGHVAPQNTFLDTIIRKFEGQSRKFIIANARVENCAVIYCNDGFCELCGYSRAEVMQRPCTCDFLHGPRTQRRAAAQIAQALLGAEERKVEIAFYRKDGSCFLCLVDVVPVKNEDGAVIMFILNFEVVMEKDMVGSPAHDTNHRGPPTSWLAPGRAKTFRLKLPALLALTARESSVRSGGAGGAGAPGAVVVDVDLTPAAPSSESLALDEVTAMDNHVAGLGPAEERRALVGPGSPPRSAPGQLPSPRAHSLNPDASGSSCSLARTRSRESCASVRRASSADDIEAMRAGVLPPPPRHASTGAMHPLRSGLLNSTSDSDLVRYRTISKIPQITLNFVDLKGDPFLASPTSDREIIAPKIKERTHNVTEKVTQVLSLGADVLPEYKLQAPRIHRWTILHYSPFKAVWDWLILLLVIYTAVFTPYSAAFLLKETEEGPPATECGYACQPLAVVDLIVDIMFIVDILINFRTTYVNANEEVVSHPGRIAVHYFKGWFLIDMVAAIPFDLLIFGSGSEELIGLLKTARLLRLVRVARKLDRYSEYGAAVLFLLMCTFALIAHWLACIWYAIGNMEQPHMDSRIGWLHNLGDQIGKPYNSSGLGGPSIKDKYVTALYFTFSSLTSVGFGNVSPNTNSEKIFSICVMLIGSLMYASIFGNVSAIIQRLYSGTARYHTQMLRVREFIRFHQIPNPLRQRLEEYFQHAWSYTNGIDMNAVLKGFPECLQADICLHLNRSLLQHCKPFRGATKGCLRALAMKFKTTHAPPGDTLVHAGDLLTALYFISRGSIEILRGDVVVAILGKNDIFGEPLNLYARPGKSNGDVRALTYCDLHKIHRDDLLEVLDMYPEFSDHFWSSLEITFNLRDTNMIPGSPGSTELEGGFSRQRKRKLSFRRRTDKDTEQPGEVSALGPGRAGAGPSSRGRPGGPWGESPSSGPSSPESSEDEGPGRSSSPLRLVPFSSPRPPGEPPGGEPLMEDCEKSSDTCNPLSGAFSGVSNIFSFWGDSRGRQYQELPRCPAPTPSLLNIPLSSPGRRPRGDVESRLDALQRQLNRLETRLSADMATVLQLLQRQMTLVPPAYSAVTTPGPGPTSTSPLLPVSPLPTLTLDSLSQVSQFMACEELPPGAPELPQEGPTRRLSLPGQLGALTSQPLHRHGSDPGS

Compound	hERG current change (%, negative = inhibition) at 1uM [%]
CCCOc1cccc(C2C(C(=O)c3ccc(C)o3)=C(O)C(=O)N2c2nc(C)c(C(C)=O)s2)c1 (stereo not drawn)	15.9
O=C(CSc1nnc(-c2cccs2)o1)N1CCCc2ccccc21	5.71
Cc1ccc(S(=O)(=O)N(C)c2ccc(C(=O)NCc3ccccc3F)cc2)cc1	9.63
CCOC(=O)c1oc2ccc(CNCCO)c(Cl)c2c1C	12.9
CCSc1nc(O)cc(=O)n1CC	9.67
CCOC(=O)/C(=N\Nc1cccc(C(F)(F)F)c1)N1CCOCC1	7.97
CCCCOCCCNC(=O)c1c(-c2ccccc2)noc1C	9.79
C=CCc1ccc(OCc2ccc(C(=O)O)o2)c(OC)c1	17.7
Cc1cc(C)n(-c2ccc(F)cc2CN2CCN(Cc3ccccc3)C(CCO)C2)n1 (stereo not drawn)	-14.3
Cc1cccc(-n2c(C)nc3sccc3c2=O)c1	19.8
C[n+]1ccccc1/C=C1\Sc2ccccc2N1CCO.[I-]	6.6
COc1ccc(COC(=O)C2CCN(S(=O)(=O)c3ccc(Cl)cc3)CC2)cc1	20.4
CCc1nc(SCC(=O)c2ccccc2)c2ccccc2n1	8.99
O=C(Nc1ccc(F)cc1)N1CCN(C(=O)C2CCCO2)CC1 (stereo not drawn)	9.04
COc1ccc(S(=O)(=O)/N=C2\C=C(NS(=O)(=O)c3ccccc3)C(=O)c3ccccc32)cc1	8.41
O=C(Nc1ccccc1)c1cn(CCBr)cn1	14
COC(=O)Oc1c(Br)c(=O)oc2ccccc12	12.6
CC1=C(C)/C(=N\OS(=O)(=O)c2ccccc2)C=CC1=O	2.08
O=C(NC1CCCCC1)C(c1ccc(F)cc1)N(CCc1ccccc1)C(=O)CN1C(=O)c2ccccc2S1(=O)=O (stereo not drawn)	16.3
Cc1nc(N2CCC(C)CC2)c2nnn(Cc3ccccc3)c2n1	11.6
CN(C)S(=O)(=O)c1cccc(NC(=S)N2CCCCC2CO)c1 (stereo not drawn)	3.32
Cc1ccccc1-n1c(SCC(=O)c2c(N)n(C)c(=O)n(C)c2=O)nc2sc3c(c2c1=O)CCCC3	26.3
COc1cc2ccccc2cc1C(=O)Nc1cccnc1	1.3
Cn1c(=O)c2cc(S(=O)(=O)NCCC(=O)NC3CCCCCCC3)ccc2n(C)c1=O	-3.28

Compound	hERG current change (%, negative = inhibition) at 1uM [%]
O=C(COc1ccc(F)c(Cl)c1)N1CCCCCCC1	16
O=C(OC1CCOC1=O)c1ccc2ncsc2c1 (stereo not drawn)	6.14
Cc1n[nH]c(C)c1CCc1nc2c3ccccc3nc(SCC(=O)Nc3ccccc3F)n2n1	8.59
COc1cc(C(=O)NCCCNc2ccc([N+](=O)[O-])cc2)cc(OC)c1OC	-24.6
COc1ccc(C(=O)NNC(=O)C2CCCN(C3CC(=O)N(c4ccccc4)C3=O)C2)cc1 (stereo not drawn)	9.55
C=CCNC(=O)/C(=C\c1ccc([N+](=O)[O-])cc1)NC(C)=O	8.68
CCN(CC(=O)NCc1cccs1)C(=O)CCC(=O)c1ccc(C)cc1	-15.9
Cc1ccc(NC(=O)CSCC(=O)NC2=NCCS2)cc1	2.84
COC(=O)CSc1nc2c(c(=O)[nH]c(=O)n2C)n1CCC(C)C	-0.966
C=CCn1c(C)c(C(=O)OCC)c2cc(O)c3ccccc3c21	6.27
OCC1(Cc2cccc(Cl)c2)CCCN(Cc2ccc3cc(F)ccc3n2)C1 (stereo not drawn)	-1.37
CCCOCC(O)CCc1n[nH]c(=S)n1-c1ccccc1 (stereo not drawn)	24.6
Cc1ccc(NC(=O)c2ccc(NC(=O)c3ccccc3)cc2)cc1C	-0.468
C=CCn1c(COc2ccccc2)nnc1SCC(=O)Nc1ccc(S(N)(=O)=O)cc1	8.92
O=C(/C=C/c1ccc2c(c1)OCO2)Nc1ccc(Cl)cn1	10.6
O=C(CCc1nnc(CCC2CCCCC2)o1)NCCc1ccccn1	-9.12
CC(CNC(=O)CN1C(=O)COc2ccc(S(=O)(=O)N3CCCCC3)cc21)c1ccccc1 (stereo not drawn)	22.4
CS(=O)(=O)c1ccc(-n2c(=O)n(Cc3ccccc3)c(=O)c3[nH]cnc32)cc1	4.73
O=C(Nc1cccc([N+](=O)[O-])c1)c1ccn[nH]1	17.3
Cc1cc(C)n2c(=S)[nH]nc2n1	12.9
O=C(c1cc(-c2ccc(O)cc2)on1)N1CCN(c2ccc(F)cc2)CC1	12.4
CC(C)CNC(=O)N1c2ccccc2Sc2ccccc21	14.4
CCCN1C2CCCC1CC(NC(=O)c1ccc(Br)cc1)C2 (stereo not drawn)	-41.1
COC(=O)/N=C(/Cc1ccc(OC)cc1)c1ccc(OC)cc1	12.1

Compound	hERG current change (%, negative = inhibition) at 1uM [%]
Cc1ccc(S(=O)(=O)Nc2ccc3ncccc3c2)cc1	11.4
Cc1cc(=O)[nH]c2ccccc12	10.2
Cc1ccc2nsnc2c1NC(=O)c1ccc([N+](=O)[O-])cc1	-3.16
COc1cccc(CC(=O)Nc2ccccc2N2CCCC2)c1	10.9
Cc1ccc(NC(=O)CSCc2cc(=O)n3ccsc3n2)c(C)c1	10.8
Cc1cc(N2CCN(S(=O)(=O)c3ccc(Cl)cc3)CC2)c2ccccc2n1	-80.8
CC(=O)c1cc2c(cc1NC(=O)C1CC1)OCO2	9.24
CCS(=O)(=O)N1CCC(C(=O)NCc2cccnc2)CC1	-12.1
CCCCC(=O)Nc1cc([N+](=O)[O-])ccc1F	10.9
CN(C)c1ccc(NC(=O)CN2CCN(c3ccc(F)cc3)CC2)cc1	-3.53
CCOC(=O)c1sc(Nc2nc3cc4c(cc3s2)OCO4)cc1C	13.2
O=C1C2CCCCN2C(=O)N1CCCCN1CCN(c2cccc(Br)c2)CC1 (stereo not drawn)	-16.7
CCSc1n[nH]c(=O)[nH]c1=O	7.32
CC(C)NC(=O)[C@H]1N2C(=O)c3ccccc3C2SC1(C)C (stereo partly drawn)	22.7
CC(C)N(C(=O)CSc1nnc(CN2CCCCCC2=O)n1-c1ccccn1)C(C)C	13.1
CCOC(=O)n1c(=O)n(Cc2ccccc2Cl)c2ccccc21	10.3
COCc1ccc(C(=O)N2CCCC(N3CCN(c4ccc(F)cc4)CC3)C2)o1 (stereo not drawn)	-24.6
O=C(Nc1ccc(Cl)cn1)c1cccc(S(=O)(=O)N2CCCC2)c1	-19.3
COc1ccc(CCNC(=O)c2nonc2N)cc1	-2.08
Cc1ccc(N2C(=O)CC(N3CCN(S(=O)(=O)c4ccccc4)CC3)C2=O)c(C)c1 (stereo not drawn)	12.3
COc1nc(OC)nc(N2CCC(C(=O)NCc3cccs3)CC2)n1	-7.17
O=C(NC(=S)Nc1ccccc1)c1ccc(Br)o1	8.62
CSc1ccc(CNC(=O)c2ccc(NC(=O)C3=CSCCO3)cc2)cc1	16.4
Cc1ccc(-c2[nH]ncc2CNCCc2cnn(-c3ccccc3)c2)cc1C	-24.9

Compound	hERG current change (%, negative = inhibition) at 1uM [%]
C=C1CCN([C@@H](CC(C)C)C(=O)NCCC(C)C)S(=O)(=O)c2ccccc21	11.9
CC1CCN(c2nc3c(cc2C#N)COC(C)(C)C3)CC1	-3.74
CCCc1nc2cc(CC(=O)OC)ccc2o1	19.4
CCOC(=O)CSc1nc2ccccc2c(=O)n1C1CCCC1	-0.485
CC(C)NC(=O)CC(=O)N/N=C\c1ccccc1C(=O)O	13.9
CCCN1CCO[C@@H]2c3cc(O)ccc3OC[C@H]21.Cl	9.38
O=C(CNC(=O)c1sc2ccccc2c1Cl)NC1CC1	9.43
COc1ccc(C(=O)NCCN2CCOCC2)c(OC)c1OC	-0.268
Cc1cc(C)nc(NC(=O)Cc2ccc([N+](=O)[O-])cc2)c1	-2.56
CC(C)C(NC(=O)C1CCCCC1)C(=O)NCc1ccccn1 (stereo not drawn)	5.83
COc1ccc(-c2nnc(Nc3nc4c(OC)cccc4s3)o2)cc1	9.17
Cc1ccccc1-n1c(=O)c2ccccc2n2c(=O)[nH]nc12	17.5
Cc1ccc2c(CC(=O)O)coc2c1	21.6
O=C(NCCN1CCOCC1)c1cc(Sc2ccc(F)cc2F)nc2ccccc12	-3.95
O=C(N/N=C/c1cccc(OC(=O)c2ccccc2Cl)c1)c1cccnc1	14.4
Nc1ncnc(SCc2c(F)cccc2Cl)n1	12.8
Cn1c(C(=O)NCCN2CCN(c3ccccc3F)CC2)cc2c(=O)n(C)c3ccccc3c21	7.05
NC(=O)c1ccc(=O)n(Cc2ccc(Cl)cc2Cl)c1	16.1
Cc1c(Cl)cnc(NC(=O)COC(=O)C(NC(=O)c2ccco2)C(C)C)c1Cl (stereo not drawn)	6.46
CC(C)(C)NC(=O)NC(=O)COC(=O)c1ccco1	-4.9
Cc1c(NC(=S)N/N=C/c2cc([N+](=O)[O-])ccc2O)c(=O)n(-c2ccccc2)n1C	6.38
